Experimental data taken from article PMC3923899, “Glypican-1 regulates myoblast response to HGF via Met in a lipid raft-dependent mechanism: effect on migration of skeletal muscle precursor cells” (Skeletal Muscle, 2014).

Target: T1, rat glypican-1 containing a FLAG epitope in its amino terminus (F-Gly) (rat, UniProt P35053 24-530, heparan sulfate chains (HSPG); glycosylphosphatidylinositol anchor; positions not given)
T1 construct: glypican-1, rat; The heparan sulfate chains were still on the protein during the immunoprecipitation; heparitinase and chondroitinase ABC were applied to the beads only afterwards; source: C2C12 myoblasts, transiently transfected (pcDNA3.0), in cell extract (RIPA buffer); not shown: FLAG, N-terminal, kept
T1 sequence (looked up): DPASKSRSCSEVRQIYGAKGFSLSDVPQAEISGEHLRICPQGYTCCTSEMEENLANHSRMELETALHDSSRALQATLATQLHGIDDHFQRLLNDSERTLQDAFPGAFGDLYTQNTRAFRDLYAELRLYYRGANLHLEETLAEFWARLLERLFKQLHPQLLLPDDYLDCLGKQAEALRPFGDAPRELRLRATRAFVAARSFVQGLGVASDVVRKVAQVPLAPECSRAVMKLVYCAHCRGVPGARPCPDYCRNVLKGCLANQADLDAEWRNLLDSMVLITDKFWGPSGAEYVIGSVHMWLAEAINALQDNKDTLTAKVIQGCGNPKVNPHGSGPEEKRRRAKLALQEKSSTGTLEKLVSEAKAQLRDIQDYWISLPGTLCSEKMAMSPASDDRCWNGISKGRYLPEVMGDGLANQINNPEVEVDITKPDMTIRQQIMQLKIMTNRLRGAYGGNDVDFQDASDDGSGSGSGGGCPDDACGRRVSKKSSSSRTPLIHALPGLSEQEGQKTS
Test: co-IP; 20 ng/ml [125I]HGF added for 5 minutes to C2C12 myoblasts transfected with F-Gly or F-GlySyn; extracts in RIPA buffer precipitated with anti-FLAG M2 Affinity Gel, 3 hours at 4°C; [125I]HGF detected by phosphorimager
Settings: one partner purified

B1: [125I]-labelled hepatocyte growth factor (HGF) (ligand)
chain: not shown
modifications: 125I label (chloramine T method)
notes: hepatocyte growth factor; also called HFG; source: bought: R&D Systems (carrier-free), radiolabeled with Na125I
  fold co-immunoprecipitated against F-GlySyn: ~4 fold
